Assay results taken from EPA's CvTdb concentration-time database.
This continues a long series; more values of the same kind are listed elsewhere.

Key:
Experiment in all cases: concentration in plasma after dosing
Rat [1] = details: dosed: Isoeugenol, 140 mg/kg, oral, Female, F344/N
Rat [2] = details: dosed: Isoeugenol, 70 mg/kg, oral, Female, F344/N
Rat [3] = details: dosed: Isoeugenol, F344/N
Rat [4] = details: dosed: Isoeugenol, 140 mg/kg, oral, Male, F344/N
Rat [5] = details: dosed: Isoeugenol, 140 mg/kg, oral, Male, F344/N; remark: listed apart in the source
Rat [6] = details: dosed: Isoeugenol, 140 mg/kg, oral, Male, F344/N; remark: listed apart in the source
Rat [7] = details: dosed: Isoeugenol, 17 mg/kg, iv, Male, F344/N

C/C=C/c1ccc(O)c(OC)c1 [Isoeugenol]
Details	concentration in plasma [ng/mL]
Rat [1], 1.5 h	644
Rat [1], 8 h	498
Rat [2], 3 h	223
Rat [2], 5 min	1170
Rat [4], 0.5 h	427
Rat [4], 10 h	55.3
Rat [5], 5 h	344
Rat [5], 20 min	3270
Rat [6], 1 h	171
Rat [6], 8 h	139
Rat [7], 4 h	17.6
Rat [7], 5 min	7810

concentration in plasma [ng/mL], Rat [3]
Details	Female	Male
0.5 h, 17 mg/kg, iv	1100	1100
0.5 h, 70 mg/kg, oral	450	174
0.5 h, 140 mg/kg, oral	1670	830
0.75 h, 17 mg/kg, iv	386	370
0.75 h, 70 mg/kg, oral	–	192
1 h, 17 mg/kg, iv	271	219
1 h, 70 mg/kg, oral	459	344
1 h, 140 mg/kg, oral	640	–
1.5 h, 17 mg/kg, iv	179	–
1.5 h, 140 mg/kg, oral	–	161
2 h, 17 mg/kg, iv	121	93.6
2 h, 70 mg/kg, oral	138	45.5
2 min, 17 mg/kg, iv	10400	9690
2 min, 70 mg/kg, oral	3200	–
2 min, 140 mg/kg, oral	1900	193
2.5 h, 17 mg/kg, iv	159	48.9
3 h, 17 mg/kg, iv	80.3	41.4
3 h, 70 mg/kg, oral	531	169
3 h, 140 mg/kg, oral	888	643
4 h, 17 mg/kg, iv	31.5	20.5
4 h, 70 mg/kg, oral	252	148
4 h, 140 mg/kg, oral	555	452
5 h, 17 mg/kg, iv	15.8	15
5 h, 70 mg/kg, oral	239	–
5 h, 140 mg/kg, oral	708	378
5 min, 17 mg/kg, iv	6950	7030
5 min, 70 mg/kg, oral	1020	–
5 min, 140 mg/kg, oral	8700	677
6 h, 17 mg/kg, iv	17.2	17.6
6 h, 70 mg/kg, oral	234	–
6 h, 140 mg/kg, oral	715	282
8 h, 70 mg/kg, oral	191	127
8 h, 140 mg/kg, oral	388	584
10 h, 140 mg/kg, oral	321	101
10 min, 17 mg/kg, iv	5000	3190
10 min, 70 mg/kg, oral	931	–
10 min, 140 mg/kg, oral	3370	2590
20 min, 17 mg/kg, iv	1780	2140
20 min, 70 mg/kg, oral	768	–
20 min, 140 mg/kg, oral	1270	748
